Measurements: publication PMC4068158, “VAPB/ALS8 interacts with FFAT-like proteins including the p97 cofactor FAF1 and the ASNA1 ATPase” (BMC Biology, 2014)

T1: recombinant full-length Flag-FAF1 expressed in bacteria (human, UniProt Q9UNN5-1 1-650)
T1 construct: FAF1, human, wild type, full length; modified pGEX6P-1 with a TEV site and a Flag-tag downstream of the GST; also called GST-TEV-Flag-FAF1 after cleavage; source: E. coli BL21, GST fusion, GST removed with AcTEV protease; not shown: GST, N-terminal, cleaved; Flag, N-terminal, kept
T1 sequence (looked up): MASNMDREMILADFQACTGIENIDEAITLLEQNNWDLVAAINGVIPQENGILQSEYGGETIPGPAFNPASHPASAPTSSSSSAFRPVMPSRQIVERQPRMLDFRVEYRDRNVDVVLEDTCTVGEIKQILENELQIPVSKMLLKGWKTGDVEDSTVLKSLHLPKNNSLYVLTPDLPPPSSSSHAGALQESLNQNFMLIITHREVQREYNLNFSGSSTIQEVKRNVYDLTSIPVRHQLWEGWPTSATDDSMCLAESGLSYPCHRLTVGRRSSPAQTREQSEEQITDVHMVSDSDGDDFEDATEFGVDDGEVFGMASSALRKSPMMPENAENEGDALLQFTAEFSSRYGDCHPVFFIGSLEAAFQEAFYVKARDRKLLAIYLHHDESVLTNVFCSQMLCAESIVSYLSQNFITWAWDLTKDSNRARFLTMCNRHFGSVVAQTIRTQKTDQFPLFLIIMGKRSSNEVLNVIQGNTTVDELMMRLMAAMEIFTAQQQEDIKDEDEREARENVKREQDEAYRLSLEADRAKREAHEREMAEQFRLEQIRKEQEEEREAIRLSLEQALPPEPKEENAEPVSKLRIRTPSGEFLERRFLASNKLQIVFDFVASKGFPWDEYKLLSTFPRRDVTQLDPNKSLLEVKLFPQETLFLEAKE

B1: recombinant VAPB ([…]) wild type (domain or fragment)
chain: not shown
notes: VAPB, human, […], lacking the C-terminal transmembrane region; GST-TEV-VAPB was either eluted with glutathione or recovered by TEV cleavage; also called truncated version of VAPB lacking the C-terminal transmembrane region; source: E. coli BL21, GST-TEV fusion, purified on GSH-Sepharose
B2: recombinant VAPB ([…]) P56S (domain or fragment)
chain: not shown
notes: VAPB, human, […], ALS-causing mutation found in patients; also called VAPB P56S; source: E. coli BL21, GST-TEV fusion, purified on GSH-Sepharose

Target: T1, recombinant full-length Flag-FAF1 …
Assay: pull-down; 2 μg recombinant Flag-FAF1 mixed with 0.5 μg recombinant VAPB (1 to 210) in 400 μl buffer B (50 mM HEPES/KOH pH 7.5, 60 mM KOAc, 5 mM MgCl2, 5% glycerol, 0.1% Triton X-100), 30 min at 4°C, then anti-Flag beads 30 min at 4°C; immunoblot
Settings: both partners purified

Row | Binder | binding result
1 | B1 | binds
2 | B2 | binds
